Some of the results follow. The full chains were built here from the parent and the listed change. Values near 0.05 are background.
B1: TEV protease; numbered along this chain (parent)
chain: MGESLFKGPRDYNPISSSICHLTNESDGHTTSLYGIGFGPFIITNKHLFRRNNGTLVVQSLHGVFKVKDTTTLQQHLVDGRDMIIIRMPKDFPPFPQKLKFREPQREERICLVTTNFQTKSMSSMVSDTSCTFPSGDGIFWKHWIQTKDGQCGSPLVSTRDGFIVGIHSASNFTNTNNYFTSVPKNFMELLTNQEAQQWVSGWRLNADSVLWGGHKVFMVKPEEPFQPVKEATQL

Variants of: B1
Experiment: raw area under fraction-flipped curve 0-4 h after induction (AUC4h, not background-subtracted), DNA-recorder readout of cleavage of the substrate (dimensionless); higher = more cleavage of the substrate by the protease variant
Details: temperature: 34 °C; time window: 0-4 h after rhamnose induction
Description: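 In vivo DNA recorder in E. coli TOP10(DE3) ΔrhaA at 34 °C. Each TEVp single-site mutant (parent TEVp 0) is paired with a single-site variant of the 7-mer TEVs (canonical ENLYFQ|S). The substrate sits between flexible linkers in a Bxb1-sfGFP-TEVs-SsrA fusion, so cleavage stabilises Bxb1 and speeds flipping of a recombination array, read by NGS. The value is the raw area under the fraction-flipped curve over 0-4 h after rhamnose induction (AUC4h), with ≥20 reads per time point. It is not background-subtracted; inactive controls average about 0.047.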
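Further: Bxb1 expression induced with 0.2% (w/v) L-rhamnose at OD600 near 0.5, cultures sampled hourly, flipped fraction per protease–substrate barcode pair counted by paired-end Illumina sequencing.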

Row | Variant | area with substrate ENLYFQA | area with substrate ENLYFQC | area with substrate ENLYFQD | area with substrate ENLYFQF | area with substrate ENLYFQG | area with substrate ENLYFQH | area with substrate ENLYFQI | area with substrate ENLYFQM | area with substrate ENLYFQN | area with substrate ENLYFQP | area with substrate ENLYFQQ | area with substrate ENLYFQR | area with substrate ENLYFQS | area with substrate ENLYFQT | area with substrate ENLYFQW | area with substrate ENLYFQY | area with substrate ENLYFQK | area with substrate ENLYFQL | area with substrate ENLYFQE | area with substrate ENLYFQV
1 | I36V | 0.0887 | 0.105 | 0.0999 | 0.0335 | 0.0898 | 0.0696 | 0.04 | 0.0838 | 0.0824 | 0.0642 | 0.0699 | 0.0507 | 0.0976 | 0.0722 | 0.0665 | 0.0711 |  |  |  | 
2 | I36A | 0.0939 | 0.0838 | 0.0522 | 0.0497 | 0.0781 |  | 0.0427 | 0.0637 | 0.0469 | 0.0454 | 0.0821 | 0.0465 | 0.0722 |  | 0.0773 | 0.0301 | 0.0592 | 0.0599 |  | 
3 | Y12W | 0.0958 | 0.112 |  |  | 0.0965 |  | 0.063 | 0.0839 | 0.0747 | 0.0634 |  | 0.0614 | 0.0977 | 0.0612 | 0.0644 | 0.0601 | 0.065 | 0.0573 | 0.0718 | 0.0587
4 | I15C | 0.0975 | 0.113 | 0.0743 | 0.0799 | 0.14 | 0.0764 | 0.0654 | 0.0902 | 0.0863 | 0.0152 |  | 0.0558 | 0.0979 | 0.0488 | 0.0639 | 0.0804 | 0.0599 | 0.05 | 0.0909 | 0.051
5 | H29A | 0.0693 | 0.105 | 0.0693 |  | 0.098 | 0.116 | 0.0797 | 0.117 | 0.0712 | 0.0659 | 0.0825 | 0.0532 | 0.105 | 0.0683 | 0.061 | 0.0548 | 0.0624 | 0.0496 |  | 0.0263
6 | H29E | 0.1 | 0.122 | 0.0738 |  | 0.0899 |  | 0.0555 | 0.0836 | 0.0586 |  | 0.0677 | 0.0583 | 0.113 | 0.0628 | 0.0643 |  | 0.0539 | 0.0615 |  | 0.0732
7 | H29D | 0.106 | 0.0887 | 0.0639 | 0.0772 | 0.14 |  | 0.0522 | 0.0801 |  | 0.057 |  | 0.0721 | 0.115 | 0.0642 | 0.0972 |  | 0.0863 | 0.0522 |  | 0.0627
8 | H29L | 0.0917 | 0.11 | 0.0659 | 0.0861 | 0.106 | 0.0698 | 0.0562 | 0.13 |  | 0.0552 |  | 0.0593 | 0.115 |  |  | 0.0761 |  | 0.0659 | 0.074 | 0.0654
9 | D11S | 0.108 | 0.124 | 0.071 | 0.075 | 0.07 | 0.0963 | 0.0558 | 0.117 | 0.0764 | 0.0537 |  | 0.0648 | 0.108 |  | 0.0591 | 0.0941 | 0.0664 | 0.0628 | 0.0579 | 0.0619
10 | D11L | 0.0717 | 0.0702 |  | 0.0573 | 0.0804 | 0.0666 | 0.0633 | 0.0671 | 0.0726 | 0.0632 | 0.0656 | 0.0617 | 0.0809 | 0.0657 | 0.0629 | 0.0647 | 0.0916 | 0.0637 | 0.0658 | 0.0665
11 | D11Q | 0.0955 | 0.0837 |  | 0.0807 | 0.0973 | 0.0695 | 0.0649 | 0.0794 | 0.0727 | 0.0739 |  | 0.0591 | 0.0917 | 0.0601 |  | 0.0764 | 0.068 | 0.069 |  | 0.0562
